According to the supplement of paper PMC11417369:
± gives the standard deviation of the averaged measurements. The list shows a part of the results.

The sequences below were run on PfAP2-G AP2 domain (GST-tagged) (assay: gcPBM binding intensity (ln(normalized median fluorescence intensity)); higher = stronger DNA binding).
Method in brief: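 GST-fused DNA-binding domains of P. falciparum, expressed in E. coli, were applied at about 25 μg on average for 1 h to an Agilent 4 × 180k array of primer-extended double-stranded 36-bp intergenic genomic probes and negative controls. Binding intensity is the highest Masliner-normalised natural-log median intensity across replicate spots of either probe orientation, measured with Alexa488 anti-GST antibody and a 488 nm scan.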

Row | Sequence | gcPBM binding intensity (ln)
1 | TATAATAATAATGATAGTACGTATGAGTTCAAGAAA [XGTACX_site4918] | 11 ± 0.63
2 | ATATTCCTTTAATATTGTACTATTTTTTTCCTTATA [XGTACX_site8659] | 11.2 ± 0.59
3 | ACCTATATAAATTATACACACAAATATAAATATATA [CACACA_site2843] | 9.96 ± 0.25
4 | AATTATATATAACGTAGTACATATTATAAACCACGT [XGTACX_site8816] | 11.5 ± 0.73
5 | TCCATGCAGAAACACACACACAAAAAAAAATTCTTT [CACACA_site4099] | 10 ± 0.28
6 | ATCTATGGGTAGTATACACACTGTATATTTAGGAAT [CACACA_site5569] | 9.97 ± 0.11
7 | ATTCTATTCTCCTTCACACACAAAAATATTTCATCA [CACACA_site2360] | 10.1 ± 0.26
8 | TTTTTGCAAAAAGAAATAATTTTATTTTAGTTCGGA [CACACA_negctrl_site1718] | 9.745 ± 0.007
9 | TTACGAATAAAACAGTGTACATTGAATTTCTATGAG [XGTACX_site4771] | 11.2 ± 0.57
10 | AAAAAAATTACATATCCATTTTAACATAATAAATAG [GTGCAC_negctrl_site618] | 9.9 ± 0.13
11 | ACACATATATATTATTATTATATAATATATATATAT [CACACA_negctrl_site1545] | 9.65 ± 0.014
12 | ATATAATATTTCATGTGGACACATTTTATGATTGTA [XGTACX_site8770] | 11.3 ± 0.83
13 | ACATGTTTTATGTGCACACAAAGTTGTTATGAGGTT [CACACA_site4031] | 10.5 ± 0.24
14 | ATATATTGAAAAAAATGTACGTATTTTTTTATGTTA [XGTACX_site4654] | 11.4 ± 0.63
15 | ATTATATATATATATACACACACACCCTAAAAATAT [CACACA_site8463] | 10.4 ± 0.35
16 | ATAGTAAACGAAATAAAAAGATTAGCATAATATCCT [CACACA_negctrl_site1730] | 9.79 ± 0.11
17 | ATTGTTTATATTGATTGTACTCATTTTTTTTTTATT [XGTACX_site1946] | 11.5 ± 0.99
18 | ATATATTATATATATTACAACTTAAGAATATACATA [TGCATGCA_negctrl_site371] | 9.685 ± 0.021
19 | TCCTGTGATTATATAACACACATTATTGCTTATAAG [CACACA_site1518] | 9.85 ± 0.042

Row | Sequence | gcPBM binding intensity (ln)
20 | AATCAAAATTAATTAACACACAATTTTAATATTCTT [CACACA_site2063] | 9.76
21 | TATGAATGTATATGTTGTACATATAAATATTTATAT [XGTACX_site1146] | 11.1 ± 0.75
22 | ATTATTATATAGTGTGCATGCAATATTAATAAAACC [TGCATGCA_site245] | 10.2 ± 0.22
23 | TTATTAAATTTTTTTTGTACTTATATATATATATAT [XGTACX_site2443] | 11.2 ± 0.79
24 | AATAAATATATTACATATATGTGTAGTATTTTTTTA [TGCATGCA_negctrl_site268] | 9.9 ± 0.085
25 | TAAGCTTGTAACAGTTTACACACTAATATTTATAAA [CACACA_site3907] | 9.95 ± 0.13
26 | AATATATTTATGCTCATGCACTTTTTTTTTTTTTTT [GTGCAC_site9654] | 10.3 ± 0.16
27 | TAATTTCTTATGTATTGTACATATAATATATGATAT [XGTACX_site4898] | 10.9 ± 0.61
28 | AAAATAAATAGATAAGCACACAAGCATATAGACATA [CACACA_site7958] | 9.865 ± 0.049
29 | TAGACTAATCCCAAAAGTACAGAAAAATTATATTAT [XGTACX_site8663] | 11.3 ± 0.89
30 | TATATTTACATTGTAACACACATGAAATATTTATAT [CACACA_site6178] | 9.955 ± 0.049
31 | TATGTTATATTATAAGGATAAATTTTGATTATATAA [TGCATGCA_negctrl_site600] | 9.81 ± 0.2
32 | AGAATAAAAAGGAACACACACACACCCATATATATA [CACACA_site3590] | 10.2 ± 0.25
33 | ATGTACATTTTTTTCACACATACATTAATTTATGAG [CACACA_site5801] | 11.3 ± 0.87
34 | TATCAATATTAAAAAGTGCAAAATAAAATATAAAAT [GTGCAC_site9486] | 10.1 ± 0.14
35 | TATATTATATATTGGGGTACATATATATAAATATAA [XGTACX_site2296] | 11.4 ± 1.1
36 | ACATACAAGAATTAAACACACACAAAATATAAATTC [CACACA_site8985] | 9.915 ± 0.049
37 | TCTTGTATATACAGTAGTACTAAAAATTATTAAATA [XGTACX_site7896] | 11.2 ± 0.75
38 | TGTTTTTTGTTCTTTACAAAAAAAAAAAAAAAAAAA [GTGCAC_negctrl_site61] | 9.62 ± 0.19

Row | Sequence | gcPBM binding intensity (ln)
39 | ATTATAATGGTAAAGTGTACAAATTTTTATTACACC [XGTACX_site5274] | 11.1 ± 0.61
40 | ATAAATATAAAAATTTGTACATATATAGGTATAGGT [XGTACX_site1735] | 10.9 ± 0.43
41 | TTATGTTGTAAATGCACACATACAAATACAGATACA [CACACA_site4876] | 10.3 ± 0.17
42 | GAAAACAAATATGTAGCACACATTCACATAATATAT [CACACA_site8731] | 9.97 ± 0.014
43 | TAATAAAAAAAGTGCACACACATAATATTTATATAT [CACACA_site7548] | 10.6 ± 0.53
44 | CATTATTTACCGCCGTGTACGTAATGAGAAATTAAA [XGTACX_site4662] | 11.5 ± 0.99
45 | TTATTTCAAATTAATTTACACACTTCATACTAAAAG [CACACA_site9039] | 10.1 ± 0.18
46 | TATTTAATTACATGAACACACATTAGATATTTTTAA [CACACA_site7405] | 9.93 ± 0.14
47 | TTTATTTATTATTAAAGTACTAAATTACATTATTAT [XGTACX_site6624] | 10.7 ± 0.66
48 | TATATAACATATGGGACACACATGCAACTGTTATAT [CACACA_site3792] | 10.5 ± 0.35
49 | TCGGTATCTGTTCAAAGTACACATTTGTATACAAAA [XGTACX_site1890] | 11.4 ± 0.93
50 | ACACTATCTTAGATTTGTACATATTTATATATGTAT [XGTACX_site8739] | 10.8 ± 0.39
51 | AAAAATATTATGATGTTTATTAGAAAGGAAAAAACT [CACACA_negctrl_site1417] | 9.885 ± 0.035
52 | TTTTTATATTATTTAATGAGAAATAATTATAAACAA [CACACA_negctrl_site553] | 9.87 ± 0.26
53 | ATGTGATGTTATATATGTACTTATTTTTTAATAAGG [XGTACX_site1786] | 11.4 ± 0.88
54 | AAATGGGTTTATTTAACACACAAAAGAAAAAATATA [CACACA_site1938] | 10.04 ± 0.014
55 | TATATATATTTATGTTGTACAAAATATTATTACGTA [XGTACX_site5384] | 10.9 ± 0.7
56 | TTATATTATAACAAACGTACGAATTTTATACAAATA [XGTACX_site7258] | 10.8 ± 0.47
